Results published in PubChem BioAssay AID1345082 (National Center for Advancing Translational Sciences (NCATS), 2018).
The campaign covered roughly 94,000 compounds. About 4,000 (4.3%) were called active. The shares of active, inactive and inconclusive entries below differ from those in the screen. The call rests on the fitted dose curve; in most records, active means well fitted inhibition curve with a large enough effect; inconclusive means small, poorly fitted or top-dose-only effect; inactive means no such curve, though single readings can be large or run the other way. A potency beside an inconclusive call is a rough fit, not a confirmed value.

Test: Cytotoxic Profiling in NIH 3T3 Cell Line of Diverse Libraries Using Quantitative High-Throughput Screening; further: nearly all actives have a fitted effect of over 55% in size
Conditions: NIH 3T3 viability, CellTiter-Glo ATP luminescence, 48-72 h; series mostly up to 96.7 µM
In short: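 Cytotoxicity is measured as loss of cellular ATP: NIH 3T3 cells (400/well) are exposed to compound for 48 or 72 hr at 37 °C, then CellTiter-Glo luminescence is imaged after 10 min at room temperature.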
Potency means the concentration at half of the fitted maximal effect; tags describe the fitted curve by direction and shape.

| Structure (SMILES) | Potency |
| --- | --- |
| COc1cc(-c2ccc(C)s2)cc2c1OCCNC2 | inconclusive: 79.4 µM [inhibitor, single point] |
| Cc1cccc(CNC(=O)CCC2CCN(S(=O)(=O)c3ccccc3)CC2)c1 | inactive |
| COc1ccc(-c2ccccc2C(=O)NC(C)C)nn1 | inactive |
| O=C1CCN(C(=O)[C@@H]2CCCN2Cc2cccc(OC(F)(F)F)c2)CCCCCCN1 | inconclusive: 39.8 µM [inhibitor, partial curve, poor fit] |
| CNCc1cccc(Oc2ccccc2)c1 | inconclusive: 63.1 µM [inhibitor, partial curve, poor fit] |
| O=C(NCCCc1ccccc1)c1nc2sccn2c1-c1cccc(C(F)(F)F)c1 | inconclusive: 44.7 µM [inhibitor, full curve, poor fit] |
| CC1=C[C@@H](CNCc2ccccn2)[C@H](C(C)C)C[C@H]1Cc1nnc(-c2ccc(N(C)C)cc2)o1 | inconclusive: 44.7 µM [inhibitor, partial curve, poor fit] |
| O=c1c2nc(-c3cccnc3)ccc2ncn1Cc1ccccc1 | inconclusive: 89.1 µM [inhibitor, partial curve, poor fit] |
| O=C(Cc1cccc(Cl)c1)N1CCN(c2ccc3nnc(C4CC4)n3n2)CC1 | inconclusive: 50.1 µM [inhibitor, partial curve, poor fit] |
| CCc1noc(-c2cn(C3CCN(C(=O)c4cccc(C#N)c4)CC3)nn2)n1 | inconclusive: 50.1 µM [inhibitor, partial curve, poor fit] |
| CC(=O)N[C@H]1C[C@@H](c2cc(C)c(C)cc2C)O[C@@H](C(C)(C)C)C1 | inconclusive: 89.1 µM [inhibitor, single point] |
| CN(C)C(=O)C1CCN(C(=O)c2ccc(-c3cccs3)cc2)CC1 | inconclusive: 100 µM [inhibitor, partial curve, poor fit] |
| COc1ccc(NC(=O)c2ccc3c(c2)N(C)C2CCCCCN2C3=O)cc1 (stereo unspecified) | inconclusive: 50.1 µM [inhibitor, partial curve, poor fit] |
| COc1ccccc1N1CC2(CN(CCOc3ccccc3)C(=O)O2)C1 | inconclusive: 79.4 µM [inhibitor, partial curve, poor fit] |
| O=C(CCc1c[nH]c2ccccc12)N1CCC(c2noc(C3CC3)n2)C1 (stereo unspecified) | inconclusive: 50.1 µM [inhibitor, partial curve, poor fit] |
| O=C(c1ccc(F)c(F)c1)N1CCC(n2cc(-c3nc(-c4ccccc4)no3)nn2)C1 (stereo unspecified) | inconclusive: 50.1 µM [inhibitor, partial curve, poor fit] |
